Results are given in words; binding and its absence hold for the method and conditions named. Binding seen in cells or lysates may run through a third protein. Some binding calls cover weakened binding; strength is not graded here. For part of these data: Tags and fused reporters may be left off the sequences shown. Blank lines part the entries; values can stand above or below the molecule they belong to.
Tests used:
[1] = molecular target: full-length MAVS (MAVS-WT), expressed in Mavs-/- BMDMs (UniProt Q7Z434); experiment: co-IP; Mavs-/- BMDMs transfected with control vector or MAVS alleles for 48 h; co-precipitated endogenous proteins detected by immunoblot
[2] = molecular target: glutamine-fructose-6-phosphate transaminase 2 (GFPT2), expressed from plasmid (UniProt O94808); experiment: co-IP; HEK293 cells transfected with the indicated plasmids for 48 h; lysis in 20 mM Tris-HCl pH 7.5, 150 mM NaCl, 1 mM EDTA, 1% Nonidet P-40; antibody cross-linked to protein G-agarose, overnight at 4 °C; immunoblot
[3] = molecular target: T1, D3 domain of GFPT2 (amino acids 531-682) (UniProt O94808); experiment: co-IP; truncation mutants of GFPT2 or G6PD co-expressed with MAVS, TRAF6 or TRAF2; cells not told in the text shown (Supplementary Fig. 11e-g, 13c, d)
T1 sequence: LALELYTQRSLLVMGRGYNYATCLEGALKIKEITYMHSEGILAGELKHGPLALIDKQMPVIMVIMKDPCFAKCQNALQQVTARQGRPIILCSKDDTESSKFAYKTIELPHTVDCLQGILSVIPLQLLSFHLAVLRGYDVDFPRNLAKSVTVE

Chains of the proteins cited; added tags and fusions are not shown. Lines headed by an entry give the natural chain unless they say otherwise; changes in a name come on top. Residues count along the entry.
UniProt Q7Z434: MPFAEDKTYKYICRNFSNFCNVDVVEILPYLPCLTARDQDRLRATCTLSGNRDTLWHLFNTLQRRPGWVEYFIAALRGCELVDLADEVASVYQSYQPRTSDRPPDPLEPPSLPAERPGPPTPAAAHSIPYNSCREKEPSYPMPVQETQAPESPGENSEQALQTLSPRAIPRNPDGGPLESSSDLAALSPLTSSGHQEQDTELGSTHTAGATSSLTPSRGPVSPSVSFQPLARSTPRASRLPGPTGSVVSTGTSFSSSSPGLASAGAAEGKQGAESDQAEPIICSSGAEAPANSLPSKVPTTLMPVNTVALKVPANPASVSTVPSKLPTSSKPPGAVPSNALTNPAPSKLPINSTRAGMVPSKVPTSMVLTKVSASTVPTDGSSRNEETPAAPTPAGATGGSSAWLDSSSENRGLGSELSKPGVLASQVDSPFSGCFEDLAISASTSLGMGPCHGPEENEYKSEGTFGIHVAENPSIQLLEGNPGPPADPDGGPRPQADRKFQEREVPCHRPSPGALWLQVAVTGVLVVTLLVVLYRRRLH
UniProt P11413: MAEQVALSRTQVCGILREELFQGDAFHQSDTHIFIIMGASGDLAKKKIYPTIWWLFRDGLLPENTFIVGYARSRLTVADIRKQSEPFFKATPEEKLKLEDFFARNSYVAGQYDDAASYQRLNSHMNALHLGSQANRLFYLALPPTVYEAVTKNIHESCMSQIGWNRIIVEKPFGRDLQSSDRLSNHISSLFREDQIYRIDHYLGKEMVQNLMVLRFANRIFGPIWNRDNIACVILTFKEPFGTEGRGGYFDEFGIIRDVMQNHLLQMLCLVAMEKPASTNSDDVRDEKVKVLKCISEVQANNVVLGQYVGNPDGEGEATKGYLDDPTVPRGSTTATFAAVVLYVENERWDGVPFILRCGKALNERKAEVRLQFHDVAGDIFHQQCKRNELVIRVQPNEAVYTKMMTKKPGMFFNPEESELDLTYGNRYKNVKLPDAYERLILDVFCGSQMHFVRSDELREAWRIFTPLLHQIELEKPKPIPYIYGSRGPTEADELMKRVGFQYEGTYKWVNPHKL
C-terminal domain of G6PD (amino acids 211-515): residues 211-515 of P11413
UniProt Q00612: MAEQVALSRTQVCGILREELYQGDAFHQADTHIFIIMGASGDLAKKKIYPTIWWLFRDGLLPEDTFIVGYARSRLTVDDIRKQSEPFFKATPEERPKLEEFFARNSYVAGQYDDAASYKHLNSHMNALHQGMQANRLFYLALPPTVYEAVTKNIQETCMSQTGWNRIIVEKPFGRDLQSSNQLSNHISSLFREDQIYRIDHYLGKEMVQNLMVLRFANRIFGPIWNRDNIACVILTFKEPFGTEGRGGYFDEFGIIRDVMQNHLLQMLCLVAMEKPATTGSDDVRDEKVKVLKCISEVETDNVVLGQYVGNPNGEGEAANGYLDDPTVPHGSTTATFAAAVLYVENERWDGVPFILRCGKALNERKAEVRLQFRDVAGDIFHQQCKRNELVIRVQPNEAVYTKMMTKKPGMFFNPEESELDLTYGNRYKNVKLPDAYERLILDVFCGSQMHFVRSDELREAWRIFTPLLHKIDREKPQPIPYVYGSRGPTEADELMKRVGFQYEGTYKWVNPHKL
UniProt Q9Y6K9: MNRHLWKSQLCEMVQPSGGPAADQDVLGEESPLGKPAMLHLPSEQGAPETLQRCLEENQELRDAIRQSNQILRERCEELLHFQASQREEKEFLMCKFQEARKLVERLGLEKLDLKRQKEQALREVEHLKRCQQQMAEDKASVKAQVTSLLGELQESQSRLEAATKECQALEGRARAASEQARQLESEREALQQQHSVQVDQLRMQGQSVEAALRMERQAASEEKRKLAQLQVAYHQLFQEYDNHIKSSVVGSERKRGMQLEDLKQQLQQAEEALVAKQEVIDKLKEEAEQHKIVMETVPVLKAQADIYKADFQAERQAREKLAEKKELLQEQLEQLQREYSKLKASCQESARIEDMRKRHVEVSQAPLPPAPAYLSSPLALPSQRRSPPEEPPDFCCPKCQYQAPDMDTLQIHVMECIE

[4] = molecular target: T2, D1 domain of GFPT2 (amino acids 1-360) (UniProt O94808); experiment: as above
T2 sequence: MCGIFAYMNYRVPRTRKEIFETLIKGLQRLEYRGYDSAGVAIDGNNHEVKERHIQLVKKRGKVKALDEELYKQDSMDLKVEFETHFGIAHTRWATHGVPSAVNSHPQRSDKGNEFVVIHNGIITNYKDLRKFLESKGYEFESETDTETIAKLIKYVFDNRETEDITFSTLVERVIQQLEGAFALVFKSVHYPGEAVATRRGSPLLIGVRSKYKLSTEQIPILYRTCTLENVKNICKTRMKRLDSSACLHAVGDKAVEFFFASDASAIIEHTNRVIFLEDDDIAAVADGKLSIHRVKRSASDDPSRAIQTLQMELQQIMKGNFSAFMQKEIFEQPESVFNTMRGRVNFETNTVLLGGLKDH

[5] = molecular target: C-terminal domain of G6PD (amino acids 211-515) (UniProt P11413); experiment: as above
[6] = molecular target: glucose-6-phosphate dehydrogenase (G6PD), expressed from plasmid (UniProt P11413); experiment: co-IP; HEK293 cells transfected with the indicated plasmids for 48 h; lysis in 20 mM Tris-HCl pH 7.5, 150 mM NaCl, 1 mM EDTA, 1% Nonidet P-40; antibody cross-linked to protein G-agarose, overnight at 4 °C; immunoblot
[7] = molecular target: G6PD, endogenous in THP-1 cells (human (endogenous in THP-1)) (UniProt P11413); experiment: co-IP

Molecule: GFPT2, endogenous in mouse BMDMs (from UniProt Q9Z2Z9 1-682) (enzyme)
binding [1]: binds

Molecule: G6PD, endogenous in mouse BMDMs (from UniProt Q00612 1-515) (enzyme)
binding [1]: binds

Molecule: MAVS, expressed from plasmid (from UniProt Q7Z434 1-540)
binding [3]: binds
binding [4]: binds
binding [5]: binds
binding [2]: binds
binding [6]: binds

Molecule: MAVS, endogenous in THP-1 cells (from UniProt Q7Z434 1-540)
binding [7]: binds

B4: IκB kinase β, expressed from plasmid (enzyme, UniProt O14920 1-756)
chain: MSWSPSLTTQTCGAWEMKERLGTGGFGNVIRWHNQETGEQIAIKQCRQELSPRNRERWCLEIQIMRRLTHPNVVAARDVPEGMQNLAPNDLPLLAMEYCQGGDLRKYLNQFENCCGLREGAILTLLSDIASALRYLHENRIIHRDLKPENIVLQQGEQRLIHKIIDLGYAKELDQGSLCTSFVGTLQYLAPELLEQQKYTVTVDYWSFGTLAFECITGFRPFLPNWQPVQWHSKVRQKSEVDIVVSEDLNGTVKFSSSLPYPNNLNSVLAERLEKWLQLMLMWHPRQRGTDPTYGPNGCFKALDDILNLKLVHILNMVTGTIHTYPVTEDESLQSLKARIQQDTGIPEEDQELLQEAGLALIPDKPATQCISDGKLNEGHTLDMDLVFLFDNSKITYETQISPRPQPESVSCILQEPKRNLAFFQLRKVWGQVWHSIQTLKEDCNRLQQGQRAAMMNLLRNNSCLSKMKNSMASMSQQLKAKLDFFKTSIQIDLEKYSEQTEFGITSDKLLLAWREMEQAVELCGRENEVKLLVERMMALQTDIVDLQRSPMGRKQGGTLDDLEEQARELYRRLREKPRDQRTEGDSQEMVRLLLQAIQSFEKKVRVIYTQLSKTVVCKQKALELLPKVEEVVSLMNEDEKTVVRLQEKRQKELWNLLKIACSKVRGPVSGSPDSMNASRLSQPGQLMSQPSTASNSLPEPAKKSEELVAEAHNLCTLLENAIQDTVREQDQSFTALDWSWLQTEEEEHSCLEQAS
binding [2]: no binding

The next lines start with the values.

binding [2]: no binding
Molecule: NEMO, expressed from plasmid (from UniProt Q9Y6K9 1-419)

binding [2]: no binding
B1: TAK1, expressed from plasmid (enzyme, UniProt O43318 1-606)
chain: MSTASAASSSSSSSAGEMIEAPSQVLNFEEIDYKEIEVEEVVGRGAFGVVCKAKWRAKDVAIKQIESESERKAFIVELRQLSRVNHPNIVKLYGACLNPVCLVMEYAEGGSLYNVLHGAEPLPYYTAAHAMSWCLQCSQGVAYLHSMQPKALIHRDLKPPNLLLVAGGTVLKICDFGTACDIQTHMTNNKGSAAWMAPEVFEGSNYSEKCDVFSWGIILWEVITRRKPFDEIGGPAFRIMWAVHNGTRPPLIKNLPKPIESLMTRCWSKDPSQRPSMEEIVKIMTHLMRYFPGADEPLQYPCQYSDEGQSNSATSTGSFMDIASTNTSNKSDTNMEQVPATNDTIKRLESKLLKNQAKQQSESGRLSLGASRGSSVESLPPTSEGKRMSADMSEIEARIAATTAYSKPKRGHRKTASFGNILDVPEIVISGNGQPRRRSIQDLTVTGTEPGQVSSRSSSPSVRMITTSGPTSEKPTRSHPWTPDDSTDTNGSDNSIPMAYLTLDHQLQPLAPCPNSKESMAVFEQHCKMAQEYMKVQTEIALLLQRKQELVAELDQDEKDQQNTSRLVQEHKKLLDENKSLSTYYQQCKKQLEVIRSQQQKRQGTS

binding [6]: no binding
B2: interferon regulatory factor 1 (IRF1), expressed from plasmid (protein, UniProt P10914 1-325)
chain: MPITRMRMRPWLEMQINSNQIPGLIWINKEEMIFQIPWKHAAKHGWDINKDACLFRSWAIHTGRYKAGEKEPDPKTWKANFRCAMNSLPDIEEVKDQSRNKGSSAVRVYRMLPPLTKNQRKERKSKSSRDAKSKAKRKSCGDSSPDTFSDGLSSSTLPDDHSSYTVPGYMQDLEVEQALTPALSPCAVSSTLPDWHIPVEVVPDSTSDLYNFQVSPMPSTSEATTDEDEEGKLPEDIMKLLEQSEWQPTNVDGKGYLLNEPGVQPTSVYGDFSCKEEPEIDSPGGDIGLSLQRVFTDLKNMDATWLDSLLTPVRLPSIQAIPCAP

binding [1]: binds
B3: TRAF2, endogenous in mouse BMDMs (protein, UniProt P39429 1-501)
chain: MAAASVTSPGSLELLQPGFSKTLLGTRLEAKYLCSACKNILRRPFQAQCGHRYCSFCLTSILSSGPQNCAACVYEGLYEEGISILESSSAFPDNAARREVESLPAVCPNDGCTWKGTLKEYESCHEGLCPFLLTECPACKGLVRLSEKEHHTEQECPKRSLSCQHCRAPCSHVDLEVHYEVCPKFPLTCDGCGKKKIPRETFQDHVRACSKCRVLCRFHTVGCSEMVETENLQDHELQRLREHLALLLSSFLEAQASPGTLNQVGPELLQRCQILEQKIATFENIVCVLNREVERVAVTAEACSRQHRLDQDKIEALSNKVQQLERSIGLKDLAMADLEQKVSELEVSTYDGVFIWKISDFTRKRQEAVAGRTPAIFSPAFYTSRYGYKMCLRVYLNGDGTGRGTHLSLFFVVMKGPNDALLQWPFNQKVTLMLLDHNNREHVIDAFRPDVTSSSFQRPVSDMNIASGCPLFCPVSKMEAKNSYVRDDAIFIKAIVDLTGL

binding [1]: binds
B5: TRAF6, endogenous in mouse BMDMs (protein, UniProt P70196 1-530)
chain: MSLLNCENSCGSSQSSSDCCAAMAASCSAAVKDDSVSGSASTGNLSSSFMEEIQGYDVEFDPPLESKYECPICLMALREAVQTPCGHRFCKACIIKSIRDAGHKCPVDNEILLENQLFPDNFAKREILSLTVKCPNKGCLQKMELRHLEDHQVHCEFALVNCPQCQRPFQKCQVNTHIIEDCPRRQVSCVNCAVSMAYEEKEIHDQSCPLANIICEYCGTILIREQMPNHYDLDCPTAPIPCTFSVFGCHEKMQRNHLARHLQENTQLHMRLLAQAVHNVNLALRPCDAASPSRGCRPEDPNYEETIKQLESRLVRQDHQIRELTAKMETQSMYVGELKRTIRTLEDKVAEMEAQQCNGIYIWKIGNFGMHLKSQEEERPVVIHSPGFYTGRPGYKLCMRLHLQLPTAQRCANYISLFVHTMQGEYDSHLPWPFQGTIRLTILDQSEALIRQNHEEVMDAKPELLAFQRPTIPRNPKGFGYVTFMHLEALRQGTFIKDDTLLVRCEVSTRFDMGGLRKEGFQPRSTDAGV

binding [2]: no binding
B6: RIG-I, expressed from plasmid (protein, UniProt O95786 1-925)
chain: MTTEQRRSLQAFQDYIRKTLDPTYILSYMAPWFREEEVQYIQAEKNNKGPMEAATLFLKFLLELQEEGWFRGFLDALDHAGYSGLYEAIESWDFKKIEKLEEYRLLLKRLQPEFKTRIIPTDIISDLSECLINQECEEILQICSTKGMMAGAEKLVECLLRSDKENWPKTLKLALEKERNKFSELWIVEKGIKDVETEDLEDKMETSDIQIFYQEDPECQNLSENSCPPSEVSDTNLYSPFKPRNYQLELALPAMKGKNTIICAPTGCGKTFVSLLICEHHLKKFPQGQKGKVVFFANQIPVYEQQKSVFSKYFERHGYRVTGISGATAENVPVEQIVENNDIIILTPQILVNNLKKGTIPSLSIFTLMIFDECHNTSKQHPYNMIMFNYLDQKLGGSSGPLPQVIGLTASVGVGDAKNTDEALDYICKLCASLDASVIATVKHNLEELEQVVYKPQKFFRKVESRISDKFKYIIAQLMRDTESLAKRICKDLENLSQIQNREFGTQKYEQWIVTVQKACMVFQMPDKDEESRICKALFLYTSHLRKYNDALIISEHARMKDALDYLKDFFSNVRAAGFDEIEQDLTQRFEEKLQELESVSRDPSNENPKLEDLCFILQEEYHLNPETITILFVKTRALVDALKNWIEGNPKLSFLKPGILTGRGKTNQNTGMTLPAQKCILDAFKASGDHNILIATSVADEGIDIAQCNLVILYEYVGNVIKMIQTRGRGRARGSKCFLLTSNAGVIEKEQINMYKEKMMNDSILRLQTWDEAVFREKILHIQTHEKFIRDSQEKPKPVPDKENKKLLCRKCKALACYTADVRVIEECHYTVLGDAFKECFVSRPHPKPKQFSSFEKRAKIFCARQNCSHDWGIHVKYKTFEIPVIKIESFVVEDIATGVQTLYSKWKDFHFEKIPFDPAEMSK

Source: paper PMC10475032
